In all, about 110,000 compounds went through this assay and about 230 (0.21%) showed an effect of 50% or more. The list shows a part of the results.
The compounds below were run against DPAP1 (Plasmodium falciparum, UniProt Q8IIJ9) (assay: primary screen, percent inhibition; read by cleavage of a fluorogenic dipeptide substrate; higher = more effect of the substance).
Sequence of DPAP1 (Q8IIJ9 whole entry, looked up): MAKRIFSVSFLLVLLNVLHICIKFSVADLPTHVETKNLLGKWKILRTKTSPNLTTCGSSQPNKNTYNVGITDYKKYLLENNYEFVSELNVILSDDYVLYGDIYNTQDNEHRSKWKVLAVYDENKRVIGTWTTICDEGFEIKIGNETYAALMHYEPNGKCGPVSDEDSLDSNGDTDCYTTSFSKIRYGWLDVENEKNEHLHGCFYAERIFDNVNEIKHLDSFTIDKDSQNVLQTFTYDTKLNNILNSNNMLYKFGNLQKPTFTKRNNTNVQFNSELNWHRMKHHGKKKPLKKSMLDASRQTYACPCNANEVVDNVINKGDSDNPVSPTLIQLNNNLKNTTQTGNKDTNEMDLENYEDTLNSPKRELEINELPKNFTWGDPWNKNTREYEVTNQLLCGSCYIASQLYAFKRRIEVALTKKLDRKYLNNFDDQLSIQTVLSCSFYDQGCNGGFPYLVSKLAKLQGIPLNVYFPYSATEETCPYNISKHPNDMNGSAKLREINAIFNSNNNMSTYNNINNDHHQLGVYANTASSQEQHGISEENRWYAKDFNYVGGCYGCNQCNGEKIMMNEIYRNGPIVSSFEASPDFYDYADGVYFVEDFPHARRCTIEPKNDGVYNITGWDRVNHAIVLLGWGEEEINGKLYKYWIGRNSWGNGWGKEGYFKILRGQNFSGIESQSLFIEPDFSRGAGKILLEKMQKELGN
Parameters: species or system P. falciparum D10 trophozoite lysates; single well
`CCOC(=O)C1=C(C)N=c2s/c(=C\c3c[nH]c4ccccc34)c(=O)n2C1c1ccc(N(C)C)cc1` (centres unmarked) was tested, and the “% Inhibition @ 10 uM” value was 6.39%. `O=C1C2CCN(CC2)C1Cc1ccc2ccccc2c1O` (centres unmarked) was tested, and the “% Inhibition @ 10 uM” value was -4.82%. `N#CCCN(CC(=O)O)S(=O)(=O)c1ccccc1` was tested, and the “% Inhibition @ 10 uM” value was -6.99%. In the case of `O=C(Nc1ccccc1NC(=O)C1CC1)C1CC1`, the “% Inhibition @ 10 uM” value is reported as 0.475%. With `Cc1cccc(C(=O)Nc2ccc3nc(SCC(=O)N4CCOCC4)sc3c2)c1` the “% Inhibition @ 10 uM” value was 4.7%. In the case of `COc1ccccc1NC(=O)Cc1ccccc1`, the “% Inhibition @ 10 uM” value is reported as -2.03%. With `CCCC(=O)NC(c1ccc(OC)cc1)c1cc(Cl)c2cccnc2c1O` (centres unmarked) the “% Inhibition @ 10 uM” value was -7.08%. For `CCOc1ccc(CCNC(=O)CCc2c(C)nc3c(-c4ccc(F)cc4)c(C)nn3c2C)cc1`, the “% Inhibition @ 10 uM” value was 6.1%. In the case of `Cc1ccc(Nc2ncnc3ccccc23)cc1C`, the “% Inhibition @ 10 uM” value is reported as -2.19%. For `NC(=O)c1ccc(NC(=O)c2cc(-c3ccc(Cl)cc3)nc3ccccc23)cc1`, the “% Inhibition @ 10 uM” value was 0.389%. In the case of `CCc1ccc(C(C)NC(=O)CSc2ccccc2)cc1` (centres unmarked), the “% Inhibition @ 10 uM” value is reported as 5.18%. In the case of `CCNS(=O)(=O)c1cnccc1N1CCN(CCO)CC1`, the “% Inhibition @ 10 uM” value is reported as 0.245%. In the case of `CCOc1cc(/C=C2/C(=O)ON=C2C)cc(Br)c1OCc1ccc(C)cc1`, the “% Inhibition @ 10 uM” value is reported as 2.95%. In the case of `O=C(c1nc2ncccn2n1)N(Cc1ccccc1)Cc1ccccc1`, the “% Inhibition @ 10 uM” value is reported as 1.72%. In the case of `COc1ccc(OC)c(-c2cc(C(=O)NCCCn3ccnc3)no2)c1`, the “% Inhibition @ 10 uM” value is reported as -4.43%. For `CC(C)C[C@@H](CS(=O)(=O)N[C@@H](CCc1ccccc1)C(=O)COc1ccccc1)NC(=O)OCc1ccccc1`, the “% Inhibition @ 10 uM” value was 0.744%. In the case of `CCCCNC(=O)c1ccc(CS(=O)(=O)Cc2cccc(C)c2)o1`, the “% Inhibition @ 10 uM” value is reported as 2.35%. In the case of `O=c1sc2ccccc2n1Cc1ccc(Br)cc1`, the “% Inhibition @ 10 uM” value is reported as -0.856%. `CC(C)OCCCNC(=O)C1CCC(CNS(=O)(=O)c2ccccc2)CC1` (centres unmarked) was tested, and the “% Inhibition @ 10 uM” value was 0.718%. With `c1cc[n+](Cc2nc3ccccc3s2)cc1` the “% Inhibition @ 10 uM” value was 2.68%. `CC1=CN2C(=N)/C(=C/c3cc(C)n(-c4ccccc4Cl)c3C)C(=O)N=C2S1` was tested, and the “% Inhibition @ 10 uM” value was 2.25%. With `CCCCn1/c(=N/C(=O)c2ccncc2)c(C(=O)OCC)cc2c(=O)n3ccccc3nc21` the “% Inhibition @ 10 uM” value was -8.38%. In the case of `O=C1N/C(=C\c2c[nH]c3ccccc23)C(=O)N1Cc1ccc(Cl)cc1`, the “% Inhibition @ 10 uM” value is reported as 0.487%. In the case of `Cc1cc2nc(NC(=O)CC(C)C)sc2cc1C`, the “% Inhibition @ 10 uM” value is reported as -3.25%. In the case of `COc1ccc(-c2cc(C(=O)NCc3ccco3)c3ccccc3n2)cc1`, the “% Inhibition @ 10 uM” value is reported as -5.13%. For `O=C(O)c1cc(-c2ccc3c(c2)OCO3)nc2ccccc12`, the “% Inhibition @ 10 uM” value was -2.02%. `COc1ccc(NC(=O)Cn2nc(C(F)(F)F)cc2C2CC2)c(C)c1` was tested, and the “% Inhibition @ 10 uM” value was -0.116%. For `COc1ccccc1OC(C)C(=O)Nc1c(C(=O)c2ccccc2)oc2ccccc12` (centres unmarked), the “% Inhibition @ 10 uM” value was -2.91%. `Cc1nn(C)c2sc(C(=O)N[C@@H](C[C@H](C)c3ccccc3)C(=O)NCC#N)cc12` was tested, and the “% Inhibition @ 10 uM” value was -1.5%. For `CCN1CCN(C(=O)Cn2nc(-c3ccc(Cl)cc3)ccc2=O)CC1`, the “% Inhibition @ 10 uM” value was 6.32%. `CC1CCc2c(sc3c2CSC(C(=O)Nc2cccnc2)=C3)C1` (centres unmarked) was tested, and the “% Inhibition @ 10 uM” value was 4.79%. For `CC(C)C[C@H](NC(=O)OCc1cccc([N+](=O)[O-])c1)C(=O)NCC#N`, the “% Inhibition @ 10 uM” value was 1.71%. `O=S(=O)(Nc1ccc(-c2cn3cccnc3n2)cc1)c1ccc2ccccc2c1` was tested, and the “% Inhibition @ 10 uM” value was -5.34%. In the case of `Cc1ccc(/C=C2\C(=N)N3N=C(S(=O)(=O)CC(C)C)SC3=NC2=O)o1`, the “% Inhibition @ 10 uM” value is reported as -3.35%. `CC1(/C(CCc2ccccc2)=N/O)CCCCC1` was tested, and the “% Inhibition @ 10 uM” value was -0.736%. For `O=C(NC1CCCCCC1)C1c2ccccc2C(=O)N1Cc1ccc(F)cc1Cl` (centres unmarked), the “% Inhibition @ 10 uM” value was -1.92%. `COCc1cc(-c2c(C#N)c(N)nc3c2CCCCCC3)ccc1OC` was tested, and the “% Inhibition @ 10 uM” value was -0.425%. With `Nc1ncc(Br)cc1S(=O)(=O)NC1CCN(Cc2ccccc2)CC1` the “% Inhibition @ 10 uM” value was 3.92%. With `CN(C)c1ccc(CN2CCc3c([nH]c4ccccc34)C2)cc1` the “% Inhibition @ 10 uM” value was -1.38%. `Cn1c2c(c(=O)[nH]c1=O)C(c1ccc(Cl)cc1)C1=C(O)c3ccccc3C1=N2` (centres unmarked) was tested, and the “% Inhibition @ 10 uM” value was 3.65%. `Nc1c(C(=O)NCC(=O)O)sc2nc3c(c(C(F)(F)F)c12)CCCCC3` was tested, and the “% Inhibition @ 10 uM” value was 47%. With `O=S1(=O)C=C(SCc2ccco2)c2ccccc21` the “% Inhibition @ 10 uM” value was -0.105%. For `Cc1ccc(Nc2nc(-c3c(C)nc4ccccn34)cs2)cc1`, the “% Inhibition @ 10 uM” value was -4.31%. In the case of `Cc1ccc(S(=O)(=O)N(C)Cc2nc(-c3ccccc3)no2)cc1`, the “% Inhibition @ 10 uM” value is reported as -6.43%. With `COc1ccc(Br)cc1C1=N/C(=C\c2cccc(OC)c2OC)C(=O)O1` the “% Inhibition @ 10 uM” value was 4.22%. For `O=C(NCCCc1nc2ccccc2n1CCc1ccccc1)c1ccco1`, the “% Inhibition @ 10 uM” value was -2.99%. With `O=C(CCn1c(=O)[nH]c2ccsc2c1=O)NCCc1ccccc1Cl` the “% Inhibition @ 10 uM” value was 2.64%. For `COCc1c(C)cc(C)c(/C=C(\C#N)C(N)=S)c1C`, the “% Inhibition @ 10 uM” value was -9.12%. With `Cc1ccc(-c2nc3nc(C)cc(N4CCN(Cc5ccccc5)CC4)n3n2)cc1` the “% Inhibition @ 10 uM” value was -3.87%. With `Clc1ccc(-c2noc3ncnc(NC4CCCCCC4)c23)cc1` the “% Inhibition @ 10 uM” value was 7.21%.
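Further: 30 min substrate incubation versus DMSO and 10 µM JCP410 controls.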
